± gives the standard deviation of the averaged measurements. This is one part of the list.
The sequences below were run on PfAP2-EXP AP2 domain (GST-tagged) (assay: gcPBM binding intensity (ln(normalized median fluorescence intensity)); higher = stronger DNA binding).
In short: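 DNA-binding domains from P. falciparum, fused to GST and produced in E. coli, were put on an Agilent 4 × 180k double-stranded probe array for 1 h in 1× PBS holding 1% milk, 0.2 mg/ml BSA, 0.5% salmon testes DNA and 0.03% Triton X-100. Probes were primer-extended, 36 bp long and drawn from intergenic genomic regions, with negative controls included. After Alexa488 anti-GST antibody detection and a 488 nm scan, binding intensity was set as the highest Masliner-normalised natural-log median intensity across replicate spots of either probe orientation.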

Sequence	gcPBM binding intensity (ln)
GATTAAAATCAAAGGTGTACGCACAAATAAGTCCCA [XGTACX_site4360]	8.68 ± 0.45
TATATATATTTATGTACACACATATATACCTTTCAT [CACACA_site5479]	8.74 ± 0.23
TATATTTACTCTAAGTGTACATATTATTTTATAATA [XGTACX_site2046]	8.29 ± 0.35
TTTTTTTTTTTTATTTGTACACATTTTCATATTTTT [XGTACX_site4406]	8.71 ± 0.52
TATATATATATGTGCACACATAAAGATATTATTTTT [CACACA_site3733]	9.95 ± 0.24
AATATATATATATATACATGCATATATTCCTTCCTT [TGCATGCA_site890]	8.74 ± 0.32
ATTCTTTTAAACAGTACACACACACCGATATATATA [CACACA_site8213]	8.96 ± 0.46
TTTGTGCCTATAAATTAACACACAGAAATATATAGA [CACACA_site8175]	8.4 ± 0.36
AAAAACTTATATGATACACACGATAAACAAAATAAA [CACACA_site1039]	8.91 ± 0.36
AATATATCATAATGATGTACAAGTAAAACCGTTACA [XGTACX_site4280]	8.74 ± 0.52
TAACACATAAATAAATATATACATATATATAAAATA [CACACA_negctrl_site375]	8.35 ± 0.38
ATAAAATAAAATTGGTGTACTTTTGATAAAATAAAA [XGTACX_site4264]	8.24 ± 0.28
CAAAAATACATTATAATAATATGCACAATAATAAAT [XGTACX_negctrl_site263]	8.93 ± 0.11
GATCTATATATCATTACACACTTGAATTACTTAAAA [CACACA_site21]	8.49 ± 0.36
TTATGCATAAAAGGTGGTACTCCGTATATACATTCT [XGTACX_site4354]	8.87 ± 0.4
AACTATAAAAGTTTTACACACTGTTTTTAAATAATG [CACACA_site7686]	8.31 ± 0.45
TATTTATTTATAAATGCATGTCGCTCTTTTTATTAC [TGCATGCA_site626]	8.86 ± 0.38
ATATATATATATATGTGTACATATAAGATAGAAGAA [XGTACX_site3198]	10.2 ± 0.35
ATTATTATAGATATAACACACATAATTACATACTTA [CACACA_site6837]	8.46 ± 0.23
TCCATAAATAATTGTAGTACACATACTATGTGACAT [XGTACX_site7268]	8.56 ± 0.33
AAAAGTAAAAAAAGCACACACGAAAAAAAATAAAAA [CACACA_site5264]	8.81 ± 0.59
TATTAAAAAAAAAAATAAAAAAATAAAATAAAATAA [CACACA_negctrl_site580]	8.25 ± 0.45
ATAATATTTTAGAGCAGTACACTTTTATATTTATTG [XGTACX_site5728]	8.54 ± 0.34
AGAGGAAAAATAAAAGGAAAAAAGAAAATAATATTG [CACACA_negctrl_site852]	8.69 ± 0.57
